Experimental data taken from PubChem BioAssay AID463173 (ICCB-Longwood Screening Facility, Harvard Medical School, 2010).
About 4,300 (8.3%) of roughly 52,000 compounds were called active. Rule as the data show it: active = survival mostly below about 52% (no sharp cut-off); inactive = mostly above about 56%. The list shows a part of the results.

Test system: DeltatarO mutant
Assay: growth inhibition of S. aureus wild type versus tarO mutant, primary screen, teichoic acid synthesis inhibitors, RN4220, OD600 (AID 463173)
Conditions: OD600, 18 h, active compounds read low, screened at 18.75 µg/mL (by protocol)

Compound | survival
CN(Cc1ccccc1)c1nc2c(S(=O)(=O)c3ccccc3)nnn2c2ccsc12 | inactive: 70%
Cc1ccc(S(=O)(=O)c2nnn3c2nc(NC2CCCCC2)c2sccc23)cc1C | active: 35%
Cc1ccc(-c2nc(-c3cccs3)c(-c3cccs3)[nH]2)cc1 | inactive: 62%
Cc1cc(C)cc(OCC(=O)N(Cc2ccco2)Cc2ccccc2Cl)c1 | inactive: 73%
COc1ccc(NC(=O)CN2C(=O)C(=O)c3ccccc32)c(OC)c1 | active: 52%
Cc1c(C(=O)Nc2ccccc2F)sc2nc3n(c(=O)c12)CCC3 | inactive: 87%
CCn1c(=O)c2sccc2n2c(CCCC(=O)Nc3ccc(Oc4ccccc4)cc3)nnc12 | inactive: 83%
O=C(Nc1ccc(Br)cc1)c1cc(S(=O)(=O)N2CCc3ccccc32)ccc1F | inactive: 126%
CCOc1ccccc1CNC(=O)CN1C(=O)c2cccnc2Oc2ccc(C)cc21 | inactive: 107%
CC(NC(=O)/C=C/c1ccccc1)C1COc2ccccc2O1 (stereo unspecified) | inactive: 70%
C/C(=N/NC(=O)c1c(N)no[n+]1[O-])c1cccs1 | inactive: 71%
Cc1ccc(N(O)C(=O)Nc2ccccc2)cc1 | inactive: 84%
COc1ccc(-c2noc(CC(=O)N(C)c3cc(Cl)c(OC)cc3OC)n2)cc1 | inactive: 82%
CCCCN(C)C(=O)c1ccc2c(c1)NC(=O)C(CC(C)C)N2 (stereo unspecified) | inactive: 78%
COc1ccc(OC)c(NC(=O)N2CCC3(CC2)Oc2ccccc2C(=O)N3Cc2ccccc2F)c1 | inactive: 80%
CCN1C(=O)C2(c3ccccc31)c1c(oc3ccccc3c1=O)C(=O)N2CCOC (stereo unspecified) | inactive: 67%
CCn1c(N2CCN(S(C)(=O)=O)CC2)nc2ccccc21 | inactive: 81%
Cc1ccc(CCNC(=O)CCCn2c(=O)c3cccn3c3ccc(F)cc32)cc1 | active: 33%
CCCCN(CC)CCCNC(=O)c1sc2nc3n(c(=O)c2c1C)CCCCC3 | inactive: 55%
O=C(CN1C(=O)COc2ccc(Cl)cc21)Nc1cccc(C(=O)O)c1 | inactive: 54%
COCCNC(=O)c1cc(-c2cccc(Cl)c2)on1 | inactive: 134%
Cc1ccc(NC(=O)Cn2c(=O)n(CC(=O)NCCc3ccccc3)c(=O)c3ccccc32)cc1 | inactive: 89%
COc1ccc(C)cc1-n1c(SCC(=O)NCc2ccco2)nc2c([nH]c3ccccc32)c1=O | inactive: 91%

Compound | survival
COc1ccc(CNC(=O)CCc2c(C)nc3c4cccnc4nn3c2C)cc1 | inactive: 83%
COc1ccc(CC(=O)Nc2nnc3n2CCS3)cc1OC | inactive: 74%
CCCCN(CC)CCCNC(=O)c1nn(-c2ccc(OC)cc2)c(=O)c2c1c1ccccc1n2C | inactive: 123%
CNC(=O)C1CCC(Cn2c(=O)c3sccc3n(CC(=O)Nc3ccccc3)c2=O)CC1 (stereo unspecified) | inactive: 75%
O=C(Nc1ncc(Cc2ccccc2Cl)s1)c1ccc2c(c1)CC(c1ccccc1)OC2=O (stereo unspecified) | inactive: 59%
CCOC(=O)c1c(C)[nH]c(C)c1S(=O)(=O)N1CCCC(C(=O)N2CCN(c3ccc(Cl)cc3)CC2)C1 (stereo unspecified) | inactive: 96%
CCOC(=O)c1[nH]c(C)c(CCC(=O)N2CCN(c3cc(Cl)ccc3C)CC2)c1C | inactive: 84%
COc1ccc(Cl)cc1NC(=O)C1CCCN(c2cc(C)nc3ncnn23)C1 (stereo unspecified) | inactive: 93%
Cc1nnc(N2CCN(c3ccccc3)CC2)c2c1nnn2Cc1ccc(F)cc1 | inactive: 83%
O=C(Nc1ccccc1C(=O)OCc1cc(=O)n2c3c(sc2n1)CCCC3)c1ccc(Cl)cc1 | active: 0%
Cc1ccc(C)c(NC(=O)CCn2cnnn2)c1 | inactive: 148%
O=C1Nc2c(c(=O)[nH]c(=O)n2-c2ccc(Cl)cc2)C1(NS(=O)(=O)c1ccccc1)C(F)(F)F (stereo unspecified) | inactive: 77%
COc1ccccc1Cn1c(CNS(=O)(=O)c2ccc(Cl)s2)nc2cccnc21 | inactive: 100%
CCOc1ccccc1CNS(=O)(=O)c1cnc(N)nc1 | inactive: 79%
CCC(=O)N1CCc2cc(Br)cc(S(=O)(=O)N3CCCC(C(=O)Nc4ccc(CC)cc4)C3)c21 (stereo unspecified) | inactive: 84%
CCOC(=O)c1cccc(NC(=O)Cc2ccc(NC(=O)N3CCCCc4ccccc43)cc2)c1 | inactive: 76%
CC1=NC(C)(C)Cc2ccccc21 | inactive: 94%
CC(=O)c1cccc(NC(=O)Cn2cnc3c2c(=O)n(C)c(=O)n3C)c1 | active: 44%
OCCCNC(c1ccccc1)c1ccc(O)cc1 (stereo unspecified) | inactive: 85%
Nc1c(C(=O)c2ccc3c(c2)OCO3)sc(Nc2ccccc2F)c1S(=O)(=O)c1ccccc1 | inactive: 71%
COc1ccc(C)cc1N(CC(=O)N1CCC(C)CC1)S(=O)(=O)c1ccc(C)cc1 | active: 55%
CCOC(=O)CSc1nc2sc3c(c2c(=O)n1CC)CCCC3 | inactive: 58%
COc1ccc(C2CC(=O)c3cc(-c4nc(-c5cccc([N+](=O)[O-])c5)cs4)c(=O)n(-c4cc(C)cc(C)c4)c3C2)cc1 (stereo unspecified) | inactive: 58%

Compound | survival
Cn1c(=O)c2c(-c3ccccc3Br)n(C(C)(C)C)cc2n(C)c1=O | inactive: 109%
O=C(CCCn1c(=O)c2sccc2n(Cc2c(F)cccc2Cl)c1=O)NCc1ccccc1 | inactive: 138%
Cc1cnc2c(c1SCC(=O)N(C)c1ccccc1)c(=O)n(C)c(=O)n2C | inactive: 85%
CCCC(=O)Nc1ccc2nn(-c3ccc(CC)cc3)nc2c1 | inactive: 56%
S=c1[nH]c2ccc(Cl)cc2[nH]1 | inactive: 80%
O=C(Nc1ccc(F)cc1F)c1ccc(-c2ccccc2)s1 | inactive: 93%
O=C(CSc1nnc(-c2cccs2)o1)Nc1cccc(C(F)(F)F)c1 | active: 47%
Cc1cccc(N2C(=O)CSC23C(=O)N(CC(=O)NCCc2ccccc2)c2ccccc23)c1 (stereo unspecified) | inactive: 105%
O=C(NCc1ccccc1)/C(=C/c1ccco1)NC(=O)c1ccco1 | inactive: 81%
COCCNC(=O)CSc1nc2cc3c(cc2c(=O)n1CCCCCC(=O)NCCc1ccc(OC)c(OC)c1)OCO3 | inactive: 80%
COc1ccc(-c2cc(C(F)(F)F)n3nc(-c4ccc(Cl)cc4)cc3n2)cc1OC | inactive: 48%
Cc1ccc(N2CCN(Cc3nnc(-c4ccc5c(c4)OCO5)o3)CC2)c(C)c1 | inactive: 86%
Cc1cc(C)cc(NC(=O)CSCc2cc(=O)c3cc(Cl)ccc3[nH]2)c1 | inactive: 89%
Cc1cccc(NC(=O)Cn2nc(C)c3nn(-c4ccc(Cl)cc4)c(C)c3c2=O)c1C | inactive: 94%
COc1ccc(N(C(=O)Cn2nnc3ccccc32)C(C(=O)NCC2CCCO2)c2sccc2C)cc1 (stereo unspecified) | inactive: 94%
COc1ccccc1N1CCN(C(=O)c2ccc3c(c2)N(Cc2ccccc2)C(=O)c2ccccc2S3(=O)=O)CC1 | inactive: 72%
CC1(C)CC(=O)c2cc(-c3nc(-c4ccc(Br)cc4)cs3)c(=O)n(-c3ccccc3)c2C1 | inactive: 154%
O=C(c1cnc(N2CCOCC2)c2ccccc12)N1CCN(c2ccc(F)cc2)CC1 | inactive: 85%
Cc1c(-c2nc(-c3ccc4c(c3)[nH]c(=O)n4C)no2)cccc1[N+](=O)[O-] | inactive: 100%
Cc1cccc(-c2noc(CN(C(C)C)S(=O)(=O)c3ccc(Br)cc3)n2)c1 | active: 45%
Cn1ncc(I)c1C(=O)N1CCc2ccccc2C1 | inactive: 86%
CCn1nc(-c2ccccc2)c(-c2ccccc2)c(C(=O)Nc2ccccc2C(N)=O)c1=O | inactive: 77%
CN(C(=O)c1cnc(N2CCOCC2)c2ccccc12)c1ccccc1F | inactive: 94%

Compound | survival
COc1ccc(-n2nnnc2C2CCN(S(=O)(=O)c3cccc(Cl)c3C)CC2)cc1 | inactive: 78%
C=CCNc1sc(C(=O)c2cccs2)c(N)c1C#N | inactive: 110%
O=C(Cc1ccccc1)NC1CC(=O)N(c2ccc3c(c2)OCCO3)C1 (stereo unspecified) | inactive: 69%
Cc1c(CC(=O)N2CCCCC2)c(=O)oc2c(C)c(O)ccc12 | inactive: 57%
Cc1cc2c(cc1S(=O)(=O)CCC(=O)NCc1ccccc1)OCC(=O)N2 | inactive: 92%
O=C(OCc1ccccc1F)c1ccc(-c2nnn(Cc3ccccc3)n2)cc1 | inactive: 122%
O=C(O)CCS(=O)(=O)c1ccc(-c2ccccc2)cc1 | inactive: 99%
CCN(CC)c1ccc(NC(=O)C(NS(=O)(=O)c2cccs2)C(C)C)c(C)c1 (stereo unspecified) | inactive: 141%
COc1cc(OC)cc(C(=O)NCc2ccc3c(c2)CCN3C(=O)c2ccccc2)c1 | inactive: 83%
Cc1ccc(-n2ncc3c(N4CCN(C)CC4)ncnc32)cc1 | inactive: 81%
O=C(Cn1nc(C(F)F)cc1C1CC1)NCCC1=CCCCC1 | inactive: 99%
NC(=O)CSc1ncnc2c1cnn2-c1ccccc1 | inactive: 82%
CN(C)c1ccc(-c2nc(-c3ccncc3)no2)cc1[N+](=O)[O-] | inactive: 81%
CCOC(=O)c1cc2oc(C)cc2n1CC(=O)N(C)C1CCCCC1 | inactive: 92%
Cc1ccc(C)c(N2CCN(C(=O)c3cc(S(=O)(=O)N4CCCC4)c[nH]3)CC2)c1 | inactive: 104%
CCCOc1ccc(C(=O)Nc2ccc(NC(=O)c3cccc(Cl)c3)cc2)cc1 | inactive: 79%
COc1cccc(Nc2cc(-c3ccccc3)nc(C)n2)c1 | active: 37%
CCc1ccc(S(=O)(=O)Nc2cc(-c3cn4ccccc4n3)ccc2C)cc1 | inactive: 74%
COc1ccc(NC(=O)c2c(NCc3cccc(OC)c3)sc3c2CCC3)cc1 | inactive: 66%
COc1ccc(C)c2sc(N(Cc3cccnc3)C(=O)COc3ccccc3)nc12 | inactive: 85%
Cc1cccc(Nc2ncnc3c2cnn3C)c1C | inactive: 75%
COc1cccc(C(=O)Nc2ccc3nc(SCc4ccc(C)cc4)sc3c2)c1 | inactive: 64%
